Laboratory results from PubChem BioAssay (NCATS).
Inconclusive results are not listed. Calls come from the whole dose curve; as a rule, active = well fitted curve in the direction sought with a large enough effect; inconclusive = small, poorly fitted or top-dose-only effect, or another doubt; inactive = no such curve, though single readings can be large; an effect the other way counts as inactive or inconclusive. More than one record can exist for a structure, and the calls need not agree. For part of its entries the source gives two or more results. The list is limited to them. The source may hold further records. The records of an entry are repeated measurements across runs, samples, wells, individuals or studies. Brackets tell where a record comes from. The letters are not those of the source and start again with each entry.

Experiment: qHTS of pediatric cancer cell lines to identify multiple opportunities for drug repurposing: Primary screen for SK-N-MC cells (AID 1347093)
Conditions: SK-N-MC viability, CellTiter-Glo luminescence, 48 h; series mostly up to 46 µM
Potency is the fitted concentration of half-maximal effect.

Row | SMILES | Potency
1 | CN(C)CCOC(c1ccccc1)c1ccccc1 | active: 5.9 µM [sample A] and inactive [sample B]
2 | CC12CC3CC(C)(C1)CC(N)(C3)C2 | active: 5.9 µM [sample A] and inactive [sample B]
3 | Cc1cn([C@H]2C[C@H](N=[N+]=[N-])[C@@H](CO)O2)c(=O)[nH]c1=O | active: 2.96 µM [sample A] and inactive [sample B]
4 | Cn1cnc2c1c(=O)[nH]c(=O)n2C | inactive [sample A] and active: 10.5 µM [sample B]
5 | CC(C(=O)O)c1cccc(C(=O)c2ccccc2)c1 (centres undefined) | inactive [sample A] and active: 16.6 µM [sample B]
6 | Nc1nc2c(ncn2COC(CO)CO)c(=O)[nH]1 | active: 23.5 µM [sample A] and inactive [sample B]
7 | Clc1ccc2nsnc2c1NC1=NCCN1 | active: 11.8 µM [sample A] and inactive [sample B]
8 | CCC1(c2ccccc2)C(=O)NCNC1=O | active: 935 nM [sample A] and inactive [sample B]
9 | Nc1nnc(-c2cccc(Cl)c2Cl)c(N)n1 | inactive [sample A] and active: 14.8 µM [sample B]
10 | Cc1cn([C@H]2C=C[C@@H](CO)O2)c(=O)[nH]c1=O | active: 48.1 µM [sample A] and inactive [sample B]
11 | NC(=O)NO | inactive [sample A] and active: 1.18 µM [sample B]
12 | CC(C)C(=O)Nc1ccc([N+](=O)[O-])c(C(F)(F)F)c1 | inactive [sample A] and active: 2.64 µM [sample B]
13 | NC12CC3CC(CC(C3)C1)C2 | active: 10.5 µM [sample A] and inactive [sample B]
14 | CN(C)c1nc(N(C)C)nc(N(C)C)n1 | inactive [sample A] and active: 18.7 µM [sample B]

Experiment: qHTS of pediatric cancer cell lines to identify multiple opportunities for drug repurposing: Primary screen for BT-37 cells (AID 1347094)
Conditions: BT-37 viability, CellTiter-Glo luminescence, 48 h; series mostly up to 57.3 µM
Procedure, shortened: (§1)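 500-1,000 cells/well; 5 h pre-incubation 37 °C/5% CO2; compound pinned; 48 h; CellTiter-Glo, 15 min RT; luminescence. MIPE 11-pt from 0.78 nM, NPC 8-pt from 0.59 nM final. Bortezomib 2.3 µM final as positive control.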

Row | SMILES | Potency
15 | CC(C)(Oc1ccc(C2CC2(Cl)Cl)cc1)C(=O)O (centres undefined) | active: 39.5 µM [sample A] and inactive [sample B]
16 | CC(COc1ccccc1)N(CCCl)Cc1ccccc1 (centres undefined) | inactive [sample A] and active: 8.63 µM [sample B]
17 | Cn1cnc2c1c(=O)[nH]c(=O)n2C | inactive [sample A] and active: 27.3 µM [sample B]
18 | Nc1nc2c(ncn2COC(CO)CO)c(=O)[nH]1 | active: 24.3 µM [sample A] and inactive [sample B]
19 | CC(C)NCC(O)c1ccc(O)c(O)c1 (centres undefined) | active: 13.7 µM [sample A] and inactive [sample B]
20 | NC(=O)NO | inactive [sample A] and active: 1.93 µM [sample B]

Experiment: qHTS of pediatric cancer cell lines to identify multiple opportunities for drug repurposing: Primary screen for NB-EBc1 cells (AID 1347095)
Conditions: NB-EBc1 neuroblastoma viability, CellTiter-Glo luminescence, 48 h; series mostly up to 46 µM

Row | SMILES | Potency
21 | CC(C)(Oc1ccc(C2CC2(Cl)Cl)cc1)C(=O)O (centres undefined) | active: 3.4 µM [sample A] and inactive [sample B]
22 | CC(COc1ccccc1)N(CCCl)Cc1ccccc1 (centres undefined) | inactive [sample A] and active: 23.5 µM [sample B]
23 | Cn1cnc2c1c(=O)[nH]c(=O)n2C | inactive [sample A] and active: 26.4 µM [sample B]
24 | CC(C)NCC(O)c1ccc(O)c(O)c1 (centres undefined) | active: 14.8 µM [sample A] and inactive [sample B]
25 | NC(=O)NO | inactive [sample A] and active: 5.9 µM [sample B]

Experiment: qHTS of pediatric cancer cell lines to identify multiple opportunities for drug repurposing: Primary screen for Saos-2 cells (AID 1347097); note: nearly all actives have a fitted effect of over 40% in size
Conditions: Saos-2 viability, CellTiter-Glo ATP luminescence, 48 h; series mostly up to 46 µM
Procedure, shortened: as §1

Row | SMILES | Potency
26 | Cn1cnc2c1c(=O)[nH]c(=O)n2C | inactive [sample A] and active: 18.7 µM [sample B]
27 | Nc1nc2c(ncn2COC(CO)CO)c(=O)[nH]1 | active: 18.7 µM [sample A] and inactive [sample B]
28 | NC(=O)NO | inactive [sample A] and active: 2.09 µM [sample B]

Experiment: qHTS of pediatric cancer cell lines to identify multiple opportunities for drug repurposing: Primary screen for SK-N-SH cells (AID 1347098); note: nearly all actives have a fitted effect of over 65% in size
Conditions: SK-N-SH viability, CellTiter-Glo luminescence, 48 h; series mostly up to 57 µM
Procedure, shortened: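 Cells (500-1,000/well) rested 5 h, then received compounds for 48 h; metabolically active cells were measured by CellTiter-Glo luminescence. Final concentrations spanned up to 46 µM (MIPE, 11-point) or 0.59 nM-46 µM (NPC, 8-point) in primary screens, 11-point in follow-ups.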

Row | SMILES | Potency
29 | CC(C)(Oc1ccc(C2CC2(Cl)Cl)cc1)C(=O)O (centres undefined) | active: 35 µM [sample A] and inactive [sample B]
30 | COc1ccc2c(c1)c(CC(=O)O)c(C)n2C(=O)c1ccc(Cl)cc1 | inactive [sample A] and active: 19.2 µM [sample B]
31 | Cc1cn([C@H]2C[C@H](N=[N+]=[N-])[C@@H](CO)O2)c(=O)[nH]c1=O | active: 19.2 µM [sample A] and inactive [sample B]
32 | CCC1(c2ccccc2)C(=O)NCNC1=O | active: 4.82 µM [sample A] and inactive [sample B]
33 | CC1COc2c(N3CCN(C)CC3)c(F)cc3c(=O)c(C(=O)O)cn1c23 (centres undefined) | inactive [sample A] and active: 19.2 µM [sample B]
34 | NC12CC3CC(CC(C3)C1)C2 | active: 24.1 µM [sample A] and inactive [sample B]
